# From publication PMC4336329 (PLoS ONE, 2015)
# The whole screen tested about 310,000 compounds, of which about 14,000 (4.5%) showed an effect of 50% or more. Effects have a minus sign here. This is one part of the list.
# Biological target: human ether-à-go-go-related gene (hERG) potassium channel (human, UniProt Q12809)
# Assay: primary screen, population patch clamp on CHO cells stably expressing hERG
# 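Note: peak tail current of the secondary pulse compared with the same well before compound.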
# Sequence of human ether-à-go-go-related gene (hERG) potassium channel (Q12809 whole entry, looked up): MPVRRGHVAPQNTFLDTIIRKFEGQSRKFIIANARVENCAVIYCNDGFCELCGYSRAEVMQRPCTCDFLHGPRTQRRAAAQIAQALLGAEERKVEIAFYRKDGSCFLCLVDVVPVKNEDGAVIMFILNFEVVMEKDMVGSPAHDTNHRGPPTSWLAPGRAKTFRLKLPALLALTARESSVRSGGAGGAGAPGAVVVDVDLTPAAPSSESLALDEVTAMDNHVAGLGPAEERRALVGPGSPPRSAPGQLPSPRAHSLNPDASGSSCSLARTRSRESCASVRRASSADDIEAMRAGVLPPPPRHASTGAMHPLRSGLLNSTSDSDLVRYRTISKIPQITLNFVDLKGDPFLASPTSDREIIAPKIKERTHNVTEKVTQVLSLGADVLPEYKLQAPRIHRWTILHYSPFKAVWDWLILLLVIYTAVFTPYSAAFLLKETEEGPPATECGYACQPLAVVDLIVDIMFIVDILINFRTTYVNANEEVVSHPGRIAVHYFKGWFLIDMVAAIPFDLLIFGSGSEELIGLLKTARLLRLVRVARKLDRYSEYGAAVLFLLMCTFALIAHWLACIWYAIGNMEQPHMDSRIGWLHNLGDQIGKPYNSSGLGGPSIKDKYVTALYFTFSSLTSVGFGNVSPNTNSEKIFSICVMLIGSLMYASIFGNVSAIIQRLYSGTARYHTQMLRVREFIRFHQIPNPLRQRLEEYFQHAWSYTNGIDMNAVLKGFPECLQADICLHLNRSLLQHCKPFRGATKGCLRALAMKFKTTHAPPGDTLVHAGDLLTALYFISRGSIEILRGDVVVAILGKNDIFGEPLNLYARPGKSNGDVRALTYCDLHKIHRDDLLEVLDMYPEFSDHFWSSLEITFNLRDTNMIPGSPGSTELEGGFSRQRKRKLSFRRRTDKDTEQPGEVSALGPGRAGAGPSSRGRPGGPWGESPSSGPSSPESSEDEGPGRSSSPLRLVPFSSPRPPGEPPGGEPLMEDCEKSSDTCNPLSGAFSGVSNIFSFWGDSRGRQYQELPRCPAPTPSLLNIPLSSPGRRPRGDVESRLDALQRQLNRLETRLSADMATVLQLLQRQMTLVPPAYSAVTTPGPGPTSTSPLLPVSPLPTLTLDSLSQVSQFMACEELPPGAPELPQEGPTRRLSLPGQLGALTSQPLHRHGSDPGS
row,Compound,"hERG current change (%, negative = inhibition) at 10uM"
1,C=CCn1cc(C(=O)OCC)c(=O)c2cc(F)c(F)cc21,13.9%
2,Nc1ncnc2c1ncn2[C@H]1C[C@H](O)[C@@H](CO)O1.O,22.8%
3,CCN(CC(=O)Nc1cc(OC)ccc1OC)Cc1nc2ccccc2c(=O)[nH]1,-8.33%
4,O=C(CCC(=O)N1CCOc2ccccc21)NC1CCN(Cc2ccccc2)CC1,-51%
5,COc1ccccc1/C=N/NC(=O)CC(=O)NCc1ccccc1,-2.25%
6,C=CCOc1c(CNc2ccc(C(=O)O)cc2)cccc1OC,16%
7,NC(=O)c1ccc(NC(=O)COC(=O)c2ccc([N+](=O)[O-])cc2)cc1,-9.46%
8,O=[N+]([O-])c1ccc(CSc2nnc(-c3cccnc3)o2)cc1,-11.5%
9,CC(Cc1ccccc1)C(=O)N[C@@H](CO)Cc1ccccc1 (stereo partly shown),13.5%
10,COc1ccc(C2CC(c3cccc(C)c3)n3ncnc3N2)cc1 (stereo not shown),-24.8%
11,O=C(NNc1c(Cl)cccc1Cl)C1CCC1,22.6%
12,O=C1OCCC1Sc1nc2ccccc2n1-c1ccccc1 (stereo not shown),-16.6%
13,Cc1cccc(C)c1NC(=O)CN(C)C(=O)CSC(=S)N1CCCC1,24.6%
14,CN(Cc1ccccc1)C(=O)CCNC(=O)Cn1cnc2ccccc2c1=O,-5.76%
15,Cc1cc(C)nc(SCc2cc(=O)c(OC(=O)c3cccc([N+](=O)[O-])c3)co2)n1,-32.5%
16,O=C(COc1ccc([N+](=O)[O-])cc1)Nc1ccncc1,-36.7%
17,Cc1ccnc(NC(=O)C2CCN(S(=O)(=O)c3ccc(C)c(C)c3)CC2)c1,4.97%
18,CN1CCN(NC(=O)c2cn(-c3ccccc3)nc2-c2cccs2)CC1.Cl,-4.71%
19,O=C(c1cc(C2CC2)on1)N1CCCC(N2CCN(c3ccc(F)cc3)CC2)C1 (stereo not shown),-63.7%
20,COCCOC(=O)C1=C(C)Nc2nc(C)nn2C1c1ccc(F)cc1 (stereo not shown),-4.76%

row,Compound,"hERG current change (%, negative = inhibition) at 10uM"
1,CCc1ccc(/C=N/Nc2ncnc3nc[nH]c23)cc1,-14.7%
2,CCOC(=O)Cn1c(=O)oc2cc(S(=O)(=O)N3CCN(C(=O)OCC)CC3)ccc21,13%
3,COc1cc(OC)c(NC(=S)NCc2ccccc2)cc1Cl,13.6%
4,Cc1cnc(NC(=O)c2cc3c(s2)CCCC3)s1,6.32%
5,CC(C)c1ccccc1OCCCCCNCCO,-14.6%
6,Cc1sc2ncn(CC(=O)N3CCCC(C)C3)c(=O)c2c1S(=O)(=O)N1CCCCC1 (stereo not shown),-14.2%
7,O=C(CCC1CCCCC1)NCCN1C2=NC[C@H](Cc3ccc(O)cc3)N2C[C@H]1Cc1ccc(O)cc1,-4.37%
8,Cc1sc2ncnc(SCC(=O)N3c4ccccc4Sc4ccc(Cl)cc43)c2c1C,5.91%
9,CCOC(=O)Cn1nnc(-c2ccc(SC)cc2)n1,16.9%
10,C=CCNC(=S)NCc1cccnc1,3.53%
11,COc1ccc(CCNC(=O)CCC(=O)Nc2ccc3nc(N4CCN(C)CC4)cc(C)c3c2)cc1OC,22.2%
12,CC1CCN(c2nc3c(c(=O)[nH]c(=O)n3C)n2CCCc2ccccc2)CC1,-15.4%
13,COc1ccc(CN2CCS(=O)(=O)CC2)cc1OC,21.2%
14,Cn1c(SCC(=O)NCc2ccc3c(c2)OCO3)nnc1C1COc2ccccc2O1 (stereo not shown),-39%
15,Cc1cc(C)n(CC(O)CN2C(=O)NC(C)(C)C2=O)n1 (stereo not shown),6.26%
16,COCCNC(=O)CSc1nccn1Cc1ccc2c(c1)OCO2,4.64%
17,O=C(O)CNC(=O)c1cccc(C(F)(F)F)c1,1.95%
18,CN1CCN(CCCOc2ccc(-c3ccccc3)cc2)CC1.Cl,-69.1%
19,Cc1c(C)n(C)c2ccc(C(=O)NCCCN3CCCCC3C)cc12 (stereo not shown),-19.6%
20,N#CC1=C(N)N(c2ccccc2)C2=C(C(=O)CCC2)C1c1ccccc1 (stereo not shown),-5.99%

row,Compound,"hERG current change (%, negative = inhibition) at 10uM"
1,CCC1NC(=O)c2cc(S(N)(=O)=O)c(Cl)cc2N1 (stereo not shown),3.8%
2,O=[N+]([O-])c1cccc(/C=C/c2ccncc2)c1,-18.6%
3,Cc1ccc(-c2cc(-c3ccccc3)nc(N/N=C/c3cccnc3)n2)cc1,17.3%
4,CCc1ccccc1N(CC(=O)NCc1ccco1)C(=O)CCC(=O)Nc1nccs1,0.493%
5,CCOC(=O)N/N=C/c1ccccc1F,-2.26%
6,CC(C)C(=O)N=C1NC(=O)CS1,27.3%
7,CCCN(CCC)CCCNC(=O)c1ccc2c(c1)N(CC)C(=O)c1ccccc1S2=O (stereo not shown),-18.6%
8,COc1ccc(C(C)=O)cc1COC(=O)C1CC(=O)N(Cc2ccccc2)C1 (stereo not shown),8.24%
9,COc1ccc(NC(=O)C2CCCN(C(=O)Nc3ccc(F)cc3)C2)cc1 (stereo not shown),-9.27%
10,Cc1ccc(Nc2nc(N)nc(CCl)n2)cc1,1.76%
11,CCn1c(=O)n(CC)c2cc(N3CCCC3)c(NC(=O)c3c(F)cccc3F)cc21,-14%
12,Nc1ccc(CCC(=O)N2CCCC2)cc1,18.7%
13,COc1ccnc(Oc2ccccc2)c1C(=O)N/C=N/OCc1ccccc1,29.6%
14,COc1ccc2sc(N(CCCN(C)C)C(=O)c3ccc(S(=O)(=O)N4CCc5ccccc5C4)cc3)nc2c1.Cl,-6.59%
15,CC(=O)c1cccc(NC(=O)CN2C=NS(=O)(=O)c3ccc(C)cc32)c1,13.4%
16,CCCOc1ccc(-c2nnn(CC(=O)N3CCC(C)CC3)n2)cc1,-2.44%
17,CCC(=O)OC1(c2cccc(C)c2)CC(C)N(C)CC1C.Cl (stereo not shown),-26.8%
18,CSc1nsc(SCC(=O)Nc2ccc(F)cc2F)n1,-25.5%
